Experimental data published in patent US20250222123A1, “COMPOUND COMPRISING FC-BINDING UNIT, AND CONJUGATE PREPARED USING SAME” (ABTIS CO., LTD., priority 2022, published 2025).

Columns and labels:
[1] = system: SNU601 cell line; assay: In vivo drug efficacy, SNU601 gastric cancer tumor model; set-up: species or system BALB/c nude mouse
Procedure: The SNU601 cell line, which is a CLDN18.2-positive gastric cancer cell line, was cultured in an RPMI culture solution containing 10% FBS and 1% penicillin/streptomycin in an incubator under the conditions of 37° C. and 5% CO2. The SNU601 cell line was regularly subcultured once a week through trypsin-EDTA treatment.
(§1) For Tumor Development, an SNU601 Cell Line (1×10^7) was Mixed with Serum-Free medium and Matrigel and the resulting mixture was inoculated subcutaneously into the left flank of each BALB/c nude mouse (purchased from Charles River Laboratories Japan Inc.). Each mouse was randomly assigned to eight groups (G1 to G8) on the basis that the average tumor volume in each group reached about 155 mm^3.
(§2) All animals were observed twice a day for mortality, abnormal symptoms, pain and signs of stress, and once a day for clinical signs. The change in body weight and the tumor volume were measured three times a week, and the tumor weight was determined after autopsy. The tumor volume, tumor difference, and tumor growth inhibition were calculated as follows:
Tumor Volume (mm^3)=(Length of major axis×length of minor axis^2)/2
Tumor difference, %=((Tumor weighttest group−Tumor weightcontrol (G1))/Tumor weightcontrol (G1))×100.
Tumor growth inhibition (%)=100−(((Tf/Ti)test group)/((Tf/Ti)control))×100.
Tf is the last tumor volume measured before autopsy, and Ti is the first tumor volume measured.
(§3) At this time, the measured tumor volumes are illustrated in FIG. 55. The measured body weights are illustrated in FIG. 56. The shape of the tumors after autopsy was the same as that in FIG. 57. The tumor weights determined after autopsy is illustrated in FIG. 58.
(§4) Numerical data regarding the performance of the study was calculated as mean and standard deviation. Group variances were compared using the Bartlett's test at a 0.05 significance level for each parameter. When the difference between group variances was not significant, a parametric one-way analysis of variance (ANOVA) was performed. When a significant difference between means was indicated by ANOVA (p≤0.05), group mean comparisons between the control and each treatment group were performed using Dunnett's test. […] When significance was identified by the Kruskal-Wallis test (p<0.05), the significance of the difference between the control and each treatment group was assessed using the Dunn's multiple comparison test. Significance was reported at the 0.05, 0.01 and 0.001 levels for the comparison of each group. All statistical analyses were performed using GraphPad PRISM® Version 5.0.

[2] = system: MOCK CHO-K1; assay: Cell-based ELISA, MOCK CHO-K1 (empty vector); assay type: binding; settings: MOCK CHO-K1 negative control
Description: A CHO-K1 cell line into which a gene (SEQ ID NO: 29) encoding the claudin 18.1 protein (CLDN18.1) was transiently transfected (hereinafter, referred to as “Claudin 18.1 CHO-K1”), a CHO-K1 cell line into which a gene (SEQ ID NO: 30) encoding the claudin 18.2 protein (CLDN18.2) was transiently transfected (hereinafter, referred to as “Claudin 18.2 CHO-K1”), and a CHO-K1 cell line into which only a MOCK vector (empty vector) was transiently transfected (hereinafter, referred to as “MOCK CHO-K1”) were prepared. At this time, a pcDNA3.1 vector was used in the case of Claudin 18.1 CHO-K1, and a pcDNA3.1 (+) vector was used in the case of Claudin 18.2 CHO-K1. […]
Transient transfection was performed according to the TransIT2020 manual, the transfected cells were plated on a 96-well plate for culture, and then treated with antibody-A and ADC-A, respectively, and then cell-based enzyme-linked immunosorbent assay (ELISA) was performed, and optical density (OD) values were measured. At this time, the measured values are illustrated in FIGS. 34 to 36.
The measured results were used for regression analysis in GraphPad PRISM® 9.0 software to calculate EC50 and Bmax. The cell binding strength of antibody-A and ADC-A was evaluated based on the calculated values.

[3] = Body weight and histological observation in the SNU601 tumor model mice; assay type: in vivo, BALB/c nude mouse; settings: for effects on the changes in body weight (in words): during the study period (28 days); for histological gastric lesions (in words): even in the highest concentration administration group, G8 (2 mg/kg)
Description: as §1
as §2, with “follows: […]” for “follows:”
as §3, §4

[4] = system: MIA PaCa-2 (CLDN18.2-); assay: Cell-based ELISA, CLDN18.2-negative cancer cells; assay type: binding; settings: parental MIA PaCa-2, CLDN 18.2-negative cell line
Procedure: Four types of cell lines (MIA PaCa-2˜CLDN18.2, PATU8988S, parental MIA PaCa-2 (CLDN18.2-), and SNU601) were prepared. At this time, MIA PaCa-2˜CLDN18.2 and PATU8988S are CLDN18.2-positive pancreatic cancer cell lines. MIA PaCa-2 (CLDN18.2-) is a CLDN18.2-negative pancreatic cancer cell line. SNU601 is a CLDN18.2-positive gastric cancer cell line.
The prepared cell lines were cultured in DMEM containing 10% FBS and 1% penicillin/streptomycin (MIA PaCa-2˜CLDN18.2, MIA PaCa-2 (CLDN18.2-)), RPMI1640 containing 10% FBS and 1% penicillin/streptomycin (SNU601), and DMEM comprising 5% FBS, 5% horse serum, 1% penicillin/streptomycin, and […] L-glutamine (PATU8988S) in an incubator under the conditions of 37° C. and 5% CO2.
The prepared cell lines were plated on 96-well culture plates, treated with antibody-A, ADC-A, antibody-B, and ADC-B, respectively, and then cell-based ELISA was performed, and OD values were measured. At this time, the measured values are illustrated in FIGS. 38 to 41.
The measured results were used for regression analysis in GraphPad PRISM® 9.0 software to calculate EC50 and Bmax. The cell binding strengths of antibody-A, ADC-A, antibody-B, and ADC-B to each cell line were evaluated based on the calculated values.

[5] = 2 mg/kg, 1 time/Day1, Intravenous Injection (G2, G8)

Row | Molecule | Tumor Volume (mm^3) (Average ± Standard Deviation) Day 1 [1, 5] | Tumor Volume (mm^3) (Average ± Standard Deviation) Day 8 [1, 5] | Tumor Volume (mm^3) (Average ± Standard Deviation) Day 15 [1, 5] | Tumor Volume (mm^3) (Average ± Standard Deviation) Day 22 [1, 5] | Tumor Volume (mm^3) (Average ± Standard Deviation) Day 28 [1, 5] | Tumor Weight (g) (Average ± Standard Deviation) 28th day after first administration [1, 5] | TGI (%) Day 28 (Tumor Growth Inhibition) ([1]; 2 mg/kg, 1 time/Day1, Intravenous Injection (G2, G8), vs G1 saline) | binding to cell line (in words) [2] | Weight (g) (Average ± Standard Deviation) Day 1 [3, 5] | Weight (g) (Average ± Standard Deviation) Day 28 [3, 5] | effects on the changes in body weight (in words) [3] | histological gastric lesions (in words) [3] | binding to cell line (in words) [4] | Tumor Weight (g) (Average ± Standard Deviation) 28th day after first administration ([1]; 1.75 mg/kg, 1 time/Day1, Intravenous Injection (G7)) | tumor growth inhibition (TGI) ([1]; all ADC-A treatment groups (1 to 2 mg/kg, G4 to G8), Day 28) | Weight (g) (Average ± Standard Deviation) Day 1 ([3]; 1 mg/kg, 2 times/Day1, Day7, Intravenous Injection (G5))
1 | Antibody-A: antibody comprising a light chain of SEQ ID NO: 26 and a heavy chain of SEQ ID NO: 25 (antibody, anti-CLDN 18.2 antibody Heavy chain; anti-CLDN 18.2 antibody Light chain) heavy: QVQLVESGGGVVQPGRSLRLSCAASGFSLTTYGVHWVRQAPGKGLEWVAVIWAGGSTNYNSALMSRFTISRDNSKNTLYLQMNSLRAEDTAVYYCARAAYYGNGLDYWGQGTMVTVSS[… human IgG1 constant region …] light: DIVMTQSPLSLPVTPGEPASISCKSSQTLLNSGNQKNYLTWYLQKPGQSPQLLIYWASTGESGVPDRFSGSGSGTDFTLKISRVEAEDVGVYYCQNAYFYPFTFGGGTKVEIKRTVAAPSVFIFPPSDEQLKSGTASVVCLLNNFYPREAKVQWKVDNALQSGNSQESVTEQDSKDSTYSLSSTLTLSKADYEKHKVYACEVTHQGLSSPVTKSFNRGEC | 155.8 mm^3 | 211.3 mm^3 | 280.4 mm^3 | 316.8 mm^3 | 384.3 mm^3 | 0.250 ± 0.092 g | 9.3% | do not bind | 20.2 ± 1.3 g | 23.0 ± 1.5 g | no effects | not observed | did not bind |  |  | 
2 | ADC-A (conjugate) heavy: QVQLVESGGGVVQPGRSLRLSCAASGFSLTTYGVHWVRQAPGKGLEWVAVIWAGGSTNYNSALMSRFTISRDNSKNTLYLQMNSLRAEDTAVYYCARAAYYGNGLDYWGQGTMVTVSS[… human IgG1 constant region …] light: DIVMTQSPLSLPVTPGEPASISCKSSQTLLNSGNQKNYLTWYLQKPGQSPQLLIYWASTGESGVPDRFSGSGSGTDFTLKISRVEAEDVGVYYCQNAYFYPFTFGGGTKVEIKRTVAAPSVFIFPPSDEQLKSGTASVVCLLNNFYPREAKVQWKVDNALQSGNSQESVTEQDSKDSTYSLSSTLTLSKADYEKHKVYACEVTHQGLSSPVTKSFNRGEC |  |  |  |  |  |  |  | do not bind |  |  | no effects | not observed | did not bind | 0.002 ± 0.006 g | 60.1 to 98.3% | 20.0 ± 1.0 g
